# Assay results reported in the supplement of paper PMC8728848.
# The other results are listed elsewhere or left out.
# Assays:
# Assay in all cases: glycan array binding signal (z-score within array); higher = stronger binding
# Settings in all cases: glycan notation: IUPAC condensed, linker removed
# [1] = molecular target: Gal(b1-4)GlcNAc(b1-2)Man(a1-6)[Man(a1-3)]Man(b1-4)GlcNAc(b1-4)GlcNAc
# Outline: (§1)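 The Consortium for Functional Glycomics database supplied 3228 glycan arrays, of which those lacking an available protein sequence were dropped. The binding signal, a within-array Z-score, was averaged across arrays of the same protein sequence and across linkers. Negative scores can be read as non-binding.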
# [2] = molecular target: Gal(b1-4)GlcNAc(b1-2)[Gal(b1-4)GlcNAc(b1-4)]Man(a1-3)[Gal(b1-4)GlcNAc(b1-2)Man(a1-6)]Man(b1-4)GlcNAc(b1-4)GlcNAc
# Outline: as §1
# [3] = molecular target: Gal(b1-4)GlcNAc(b1-2)[Gal(b1-4)GlcNAc(b1-4)]Man(a1-3)[Gal(b1-4)GlcNAc(b1-2)[Gal(b1-4)GlcNAc(b1-6)]Man(a1-6)]Man(b1-4)GlcNAc(b1-4)GlcNAc
# Outline: as §1
# [4] = molecular target: Gal(b1-4)GlcNAc(b1-2)[Gal(b1-4)GlcNAc(b1-4)]Man(a1-3)[GlcNAc(b1-4)][Gal(b1-4)GlcNAc(b1-2)Man(a1-6)]Man(b1-4)GlcNAc(b1-4)GlcNAc
# Outline: as §1
# [5] = molecular target: Gal(b1-4)GlcNAc(b1-2)[Gal(b1-4)GlcNAc(b1-4)]Man(a1-3)[GlcNAc(b1-4)][Gal(b1-4)GlcNAc(b1-2)[Gal(b1-4)GlcNAc(b1-6)]Man(a1-6)]Man(b1-4)GlcNAc(b1-4)GlcNAc
# Outline: as §1
# [6] = molecular target: Gal(b1-4)GlcNAc(b1-2)[Gal(b1-4)GlcNAc(b1-6)]Man(a1-6)[Gal(b1-4)GlcNAc(b1-2)Man(a1-3)]Man(b1-4)GlcNAc(b1-4)GlcNAc
# Outline: as §1
# [7] = molecular target: Gal(b1-4)GlcNAc(b1-2)[Gal(b1-4)GlcNAc(b1-6)]Man(a1-6)[Gal(b1-4)GlcNAc(b1-2)Man(a1-3)]Man(b1-4)GlcNAc(b1-4)[Fuc(a1-6)]GlcNAc
# Outline: as §1
# [8] = molecular target: Gal(b1-4)GlcNAc(b1-2)[Gal(b1-4)GlcNAc(b1-6)]Man(a1-6)[GlcNAc(b1-4)][Gal(b1-4)GlcNAc(b1-2)Man(a1-3)]Man(b1-4)GlcNAc(b1-4)GlcNAc
# Outline: as §1
# [9] = molecular target: Gal(b1-4)GlcNAc(b1-2)[Gal(b1-4)GlcNAc(b1-6)]Man(a1-6)[GlcNAc(b1-4)][Gal(b1-4)GlcNAc(b1-2)[Gal(b1-4)GlcNAc(b1-4)]Man(a1-3)]Man(b1-4)GlcNAc(b1-4)[Fuc(a1-6)]GlcNAc
# Outline: as §1
# [10] = molecular target: Gal(b1-4)GlcNAc(b1-3)Gal(b1-3)GalNAc
# Outline: as §1
# [11] = molecular target: Gal(b1-4)GlcNAc(b1-3)Gal(b1-3)GlcNAc
# Outline: as §1
# [12] = molecular target: Gal(b1-4)GlcNAc(b1-3)Gal(b1-4)Glc
# Outline: as §1
# [13] = molecular target: Gal(b1-4)GlcNAc(b1-3)Gal(b1-4)GlcNAc
# Outline: as §1
# [14] = molecular target: Gal(b1-4)GlcNAc(b1-3)Gal(b1-4)GlcNAc(b1-2)Man(a1-3)[Gal(b1-4)GlcNAc(b1-3)Gal(b1-4)GlcNAc(b1-2)Man(a1-6)]Man(b1-4)GlcNAc(b1-4)GlcNAc
# Outline: as §1
# [15] = molecular target: Gal(b1-4)GlcNAc(b1-3)Gal(b1-4)GlcNAc(b1-2)Man(a1-3)[Gal(b1-4)GlcNAc(b1-3)Gal(b1-4)GlcNAc(b1-2)Man(a1-6)]Man(b1-4)GlcNAc(b1-4)[Fuc(a1-6)]GlcNAc
# Outline: as §1
# [16] = molecular target: Gal(b1-4)GlcNAc(b1-3)Gal(b1-4)GlcNAc(b1-2)[Gal(b1-4)GlcNAc(b1-3)Gal(b1-4)GlcNAc(b1-6)]Man(a1-6)[Gal(b1-4)GlcNAc(b1-3)Gal(b1-4)GlcNAc(b1-2)Man(a1-3)]Man(b1-4)GlcNAc(b1-4)GlcNAc
# Outline: as §1
# [17] = molecular target: Gal(b1-4)GlcNAc(b1-3)Gal(b1-4)GlcNAc(b1-2)[Gal(b1-4)GlcNAc(b1-3)Gal(b1-4)GlcNAc(b1-6)]Man(a1-6)[Gal(b1-4)GlcNAc(b1-3)Gal(b1-4)GlcNAc(b1-2)Man(a1-3)]Man(b1-4)GlcNAc(b1-4)[Fuc(a1-6)]GlcNAc
# Outline: as §1
# [18] = molecular target: Gal(b1-4)GlcNAc(b1-3)Gal(b1-4)GlcNAc(b1-3)Gal(b1-4)GlcNAc
# Outline: as §1
# [19] = molecular target: Gal(b1-4)GlcNAc(b1-3)Gal(b1-4)GlcNAc(b1-3)Gal(b1-4)GlcNAc(b1-2)Man(a1-3)[Gal(b1-4)GlcNAc(b1-3)Gal(b1-4)GlcNAc(b1-3)Gal(b1-4)GlcNAc(b1-2)Man(a1-6)]Man(b1-4)GlcNAc(b1-4)GlcNAc
# Outline: as §1
# [20] = molecular target: Gal(b1-4)GlcNAc(b1-3)Gal(b1-4)GlcNAc(b1-3)Gal(b1-4)GlcNAc(b1-2)Man(a1-3)[Gal(b1-4)GlcNAc(b1-3)Gal(b1-4)GlcNAc(b1-3)Gal(b1-4)GlcNAc(b1-2)Man(a1-6)]Man(b1-4)GlcNAc(b1-4)[Fuc(a1-6)]GlcNAc
# Outline: as §1
# [21] = molecular target: Gal(b1-4)GlcNAc(b1-3)Gal(b1-4)GlcNAc(b1-3)Gal(b1-4)GlcNAc(b1-2)[Gal(b1-4)GlcNAc(b1-3)Gal(b1-4)GlcNAc(b1-3)Gal(b1-4)GlcNAc(b1-6)]Man(a1-6)[Gal(b1-4)GlcNAc(b1-3)Gal(b1-4)GlcNAc(b1-3)Gal(b1-4)GlcNAc(b1-2)Man(a1-3)]Man(b1-4)GlcNAc(b1-4)[Fuc(a1-6)]GlcNAc
# Outline: as §1
# [22] = molecular target: Gal(b1-4)GlcNAc(b1-3)Gal(b1-4)GlcNAc(b1-3)Gal(b1-4)GlcNAc(b1-3)Gal(b1-4)GlcNAc(b1-2)Man(a1-3)[Gal(b1-4)GlcNAc(b1-3)Gal(b1-4)GlcNAc(b1-3)Gal(b1-4)GlcNAc(b1-3)Gal(b1-4)GlcNAc(b1-2)Man(a1-6)]Man(b1-4)GlcNAc(b1-4)GlcNAc
# Outline: as §1
binder,measurement,setting,value
"Langerin K313I (Homo sapiens), Q9UJ71 (protein) STLNAQIPELKSDLEKASALNTKIRALQGSLENMSKLLKRQNDILQVVSQGWKYFKGNFYYFSLIPKTWYSAEQFCVSRNSHLTSVTSESEQEFLYKTAGGLIYWIGLTKAGMEGDWSWVDDTPFNKVQSARFWIPGEPNNAGNNEHCGNIKAPSLQAWNDAPCDITFLFICKRPYVPSEP",glycan array binding signal (z-score),[1],-0.237
same,glycan array binding signal (z-score),[2],-0.316
same,glycan array binding signal (z-score),[3],-0.384
same,glycan array binding signal (z-score),[4],-0.319
same,glycan array binding signal (z-score),[5],-0.299
same,glycan array binding signal (z-score),[6],-0.311
same,glycan array binding signal (z-score),[7],0.18
same,glycan array binding signal (z-score),[8],-0.369
same,glycan array binding signal (z-score),[9],-0.325
same,glycan array binding signal (z-score),[10],-0.361
same,glycan array binding signal (z-score),[11],-0.35
same,glycan array binding signal (z-score),[12],-0.335
same,glycan array binding signal (z-score),[13],-0.394
same,glycan array binding signal (z-score),[14],0.326
same,glycan array binding signal (z-score),[15],0.267
same,glycan array binding signal (z-score),[16],0.318
same,glycan array binding signal (z-score),[17],0.352
same,glycan array binding signal (z-score),[18],-0.303
same,glycan array binding signal (z-score),[19],0.346
same,glycan array binding signal (z-score),[20],0.227
same,glycan array binding signal (z-score),[21],0.251
same,glycan array binding signal (z-score),[22],0.149
